Experimental data taken from the supplement of paper PMC11417369.
The list shows a part of the results.

System: PfSIP2 AP2 domain 1 (GST-tagged)
Assay: gcPBM binding intensity (ln(normalized median fluorescence intensity)); higher = stronger DNA binding
Summary of the method: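 GST-tagged P. falciparum DNA-binding domains, expressed in E. coli (about 25 μg on average), were applied for 1 h to an Agilent 4 × 180k array of primer-extended double-stranded 36-bp intergenic genomic probes plus negative controls. The binding buffer was 1× PBS with 1% milk, 0.2 mg/ml BSA, 0.5% salmon testes DNA and 0.03% Triton X-100. Bound protein was detected with Alexa488 anti-GST antibody and scanned at 488 nm. Binding intensity is the highest Masliner-normalised natural-log median intensity across replicate spots of either probe orientation.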

Sequence | gcPBM binding intensity (ln)
TCCTTGTTTGGTTTTTTTTTTTCTTCTTTTTTTTTT [CACACA_negctrl_site1355] | 6.93
TATGAAACGATATATGTGCACATGAGGGAATATAGA [GTGCAC_site9611] | 8.75
TTAAATGTTATATATTGTACATATAATATATGTATT [XGTACX_site1492] | 6.97
ATAAAAGATTTATACATACACACATATTATATTCAC [CACACA_site3714] | 7.12
TTTTTTTTTTTTTTTTAACACACATATATATATTTT [CACACA_site8585] | 7.14
ATATATATGTATATAACATGCAACATTTAATAATAA [TGCATGCA_site1018] | 7.18
ACACATGTATTTGGTGCATGTTGTTAAAAAAATATT [TGCATGCA_site795] | 10.8
TCATAGCTAGGATAACGTACAGAAAAGTGAAAAATT [XGTACX_site3322] | 7.16
TTTTTTTTTTGTTGTTGTACTCTTATATTTTTATAT [XGTACX_site6178] | 7.14
ATTCTAGTAATATATGTATATTTATATATGTATGTG [XGTACX_negctrl_site419] | 6.89
GATCTATTGAGTGATACATGCAGGAAAATTAAAAAC [TGCATGCA_site729] | 7.34
TTTTTTTTTTTATGCTCACACATTAATTTTTATACA [CACACA_site4527] | 6.95
TATGTATGTATGTATGTATGCATGTCTAACACCTAA [TGCATGCA_site360] | 7.27
AAAAAGAAAAAAGAAAGTACAAATATACACATTTTT [XGTACX_site3343] | 6.65
TTTTTATTATAAGGTCGTACAATTGTAATTATTGTA [XGTACX_site1413] | 7.1
AAAAAACACGGACACACACACATATACATACATACA [CACACA_site5470] | 7.75
AATATAAATAATGTTAAACACACATACCGATATATA [CACACA_site8869] | 6.95
ATTTATAGAGCTATATGTACATATATATATATTATT [XGTACX_site3704] | 7.28
AAAAGGTGGAAAAATGCATGCAGGCTATTCTATATA [TGCATGCA_site1034] | 6.7

Sequence | gcPBM binding intensity (ln)
AATTACATATAATACTGTACGCTAATAAGAAAAAAA [XGTACX_site7413] | 7.1
TTCCACCAATATATATGTACTTATAATATATATATA [XGTACX_site8700] | 8.56
ATATAAATAAAGAAATATATATATATATATATATAT [GTGCAC_negctrl_site668] | 9.28
AACGCTTATTAGTTGTTGTATATGTGTTCACATATT [CACACA_negctrl_site379] | 6.79
ACAATATAGATTAAAAGTACAAATAGTAAATTATAT [XGTACX_site3165] | 7.08
AAAACAATATACTGTAGTACTGATGATATATATATA [XGTACX_site7798] | 8.93
TCTTAAATATATAAATTGAAAAATATAAAAGTAATA [CACACA_negctrl_site1558] | 7.01
ATAAAAAAAAATAGCACACATAAATATATTATATAT [CACACA_site767] | 6.97
AATCATCTCATAAAAATTAATTAGTGTATGTCTTTT [TGCATGCA_negctrl_site416] | 6.81
CTACTTATAAATAGAACACACATAAGTGTATTTGTA [CACACA_site3759] | 6.87
TAATTATGTATGAACTGTACAGGTTATTTTATTTTA [XGTACX_site5204] | 6.89
TAAAATTTAAATTATACACACTTAAGTAACATCATC [CACACA_site4450] | 7.12
AAAAAATACCTCTATAGTACATATATATAATATTTA [XGTACX_site7222] | 6.9
AAAAAAAATTTATTTGCATGCAAAAAAAAAAAAAAA [TGCATGCA_site67] | 6.94
AAGCCCATTATTAAATGTACAAAATTTTATAAACTA [XGTACX_site7800] | 6.87
TAAAACATATATACAAGTACACAAAGGATATATATA [XGTACX_site3710] | 7.27
GTATATATGTATATATGTACATATATATAATATATT [XGTACX_site56] | 7.3
CAGTGCCAAATTAGCACACACATATATACATGAATT [CACACA_site2814] | 7.37
TATAGGTATTTATATACACACATATTCTTTTTACAC [CACACA_site6686] | 7.13

Sequence | gcPBM binding intensity (ln)
TTTTGTTATGGTTTGATGCACTTATATATAAATATT [GTGCAC_site9705] | 8.14
ATGTAGATAAAACGTGTGCACATGTTTTTTGTTATT | 8.7
CACAGTGATATAAAAACACACATGAATTATAATTTC [CACACA_site1667] | 6.88
ATATATATATATATATGTACTTATTACCAATGTTAG [XGTACX_site1896] | 9.6
ATTTAAATACAAAATTGTACTTTTCTATATTTAACA [XGTACX_site6146] | 7.22
ACCCATTTAACAAAATGTACATTATTATAATTACTT [XGTACX_site7105] | 7.2
AAATTTTAAATAGTATGTACGTATGAAATATATATG [XGTACX_site7511] | 7.58
TTTGGAAAAAAATTATTTAAACGATATGAATTGATG [XGTACX_negctrl_site506] | 7.09
AAAATTTTACAGAAGGTGCGTATATTTTCCTGCTTA [GTGCAC_site9643] | 9.88
CTTACCAAAAGACACACACACACAAGATATATAAAT [CACACA_site6964] | 7.08
AAATTAAAATAAAAATGTACATATAAAGACACAACT [XGTACX_site3132] | 7.19
TACAATATTTTGAGACGTACATATATACATTTACAT [XGTACX_site5880] | 6.99
TGAACTTACTTGGACATACACACATATATATATATA [CACACA_site2977] | 9.74
TATATATATATACCAACACACATACAGATATATATA [CACACA_site5060] | 9.36
TTTATATACAAAAATGCACACGAAAAGTAATATATA [CACACA_site9387] | 7.77
TGTAAGTCGTTATAAGCACACACATAAATAAAAATA [CACACA_site8448] | 7.16
CATTTAGTTCATACTATGCACACTACGTATATTTTT [CACACA_site2694] | 7.23
AATGCACAGCTCTTAGGCAAAAGTGGGTATTTACAC [GTGCAC_negctrl_site579] | 7.51
